According to article PMC4336329 (PLoS ONE, 2015):
Screen size: about 310,000 compounds; about 14,000 (4.5%) showed an effect of 50% or more. Effects have a minus sign here. This is one part of the list.

Molecular target: human ether-à-go-go-related gene (hERG) potassium channel (human, UniProt Q12809)
Assay: primary screen, population patch clamp on CHO cells stably expressing hERG
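Note: peak tail current of the secondary pulse compared with the same well before compound.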

Sequence of human ether-à-go-go-related gene (hERG) potassium channel (Q12809 whole entry, looked up): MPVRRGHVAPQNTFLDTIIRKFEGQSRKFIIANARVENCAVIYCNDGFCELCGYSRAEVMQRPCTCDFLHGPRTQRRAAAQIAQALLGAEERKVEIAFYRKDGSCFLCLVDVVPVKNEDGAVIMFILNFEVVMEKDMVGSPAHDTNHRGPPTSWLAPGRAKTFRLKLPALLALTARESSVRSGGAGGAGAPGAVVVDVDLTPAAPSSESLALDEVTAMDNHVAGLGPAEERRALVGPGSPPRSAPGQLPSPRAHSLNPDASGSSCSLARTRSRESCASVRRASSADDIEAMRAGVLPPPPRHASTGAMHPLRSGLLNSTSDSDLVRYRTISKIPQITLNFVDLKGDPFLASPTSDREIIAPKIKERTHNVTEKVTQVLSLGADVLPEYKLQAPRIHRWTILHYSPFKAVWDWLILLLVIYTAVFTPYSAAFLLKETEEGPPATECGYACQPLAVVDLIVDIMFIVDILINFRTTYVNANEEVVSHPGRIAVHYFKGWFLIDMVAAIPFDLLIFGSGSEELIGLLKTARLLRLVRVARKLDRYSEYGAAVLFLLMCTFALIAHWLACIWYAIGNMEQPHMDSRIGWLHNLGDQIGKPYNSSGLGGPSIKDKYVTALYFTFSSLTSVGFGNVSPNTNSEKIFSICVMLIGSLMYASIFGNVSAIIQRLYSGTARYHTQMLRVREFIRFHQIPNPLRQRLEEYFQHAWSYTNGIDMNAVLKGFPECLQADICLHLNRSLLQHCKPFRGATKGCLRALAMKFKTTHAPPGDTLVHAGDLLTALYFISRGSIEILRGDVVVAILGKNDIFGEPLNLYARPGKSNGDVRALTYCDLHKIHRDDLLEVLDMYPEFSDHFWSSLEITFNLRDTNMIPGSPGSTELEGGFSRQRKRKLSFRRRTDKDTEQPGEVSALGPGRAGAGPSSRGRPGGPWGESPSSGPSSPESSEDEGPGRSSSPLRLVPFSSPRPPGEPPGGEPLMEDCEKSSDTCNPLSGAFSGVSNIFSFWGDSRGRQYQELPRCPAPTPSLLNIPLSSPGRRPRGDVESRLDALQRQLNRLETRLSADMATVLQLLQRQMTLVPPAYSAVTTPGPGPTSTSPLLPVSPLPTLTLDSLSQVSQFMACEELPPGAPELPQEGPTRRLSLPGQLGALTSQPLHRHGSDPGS

| SMILES | hERG current change (%, negative = inhibition) at 10uM [%] |
| --- | --- |
| CC1=CC(c2ccc(Cl)cc2)n2nc(N3C(=O)CCC3=O)nc2N1.O=C(O)CCC(=O)O (stereo not shown) | -6.98 |
| C=CCN(CC=C)CCOc1ccccc1F.O=C(O)C(=O)O | -21.4 |
| CCOC(=O)C1=C(C)N(CCCC(=O)O)C(=O)NC1c1cccs1 (stereo not shown) | 30.9 |
| CC(=O)Nc1ccccc1C(F)(F)F | 21.2 |
| CCC(=O)Nc1ccc(Cl)c(NC(=S)NC(=O)c2ccco2)c1 | 15.5 |
| O=C(CCc1nc2ccccc2c(=O)[nH]1)NNC(=O)c1ccc(F)cc1 | -5.41 |
| COc1ccc(Cl)cc1NC(=O)CN1CCc2ccccc2C1 | 12.8 |
| CCc1cc(=O)oc2c3c(cc(OCC(=O)NCCCn4ccnc4)c12)OC(C)(C)CC3 | -51.1 |
| CC(C)NS(=O)(=O)c1cc(C(=O)O)ccc1Cl | -4.59 |
| Cc1ccc(NC(=O)Cn2cc(C(=O)C3CC3)c3ccccc32)c(C)c1 | 7.84 |
| O=C(NCCC1CCCCN1S(=O)(=O)c1cccs1)C(=O)Nc1cccc(F)c1 (stereo not shown) | -50.1 |
| Cc1occc(=O)c1OC(=O)Nc1ccccc1 | 4.17 |
| CC1Cc2cc(S(=O)(=O)N3CCN(C)CC3)ccc2N1C(=O)C1CC1 (stereo not shown) | 19.6 |
| CC1CN(C(=S)NC(=O)c2ccc(Cl)cc2)CC(C)O1 (stereo not shown) | 21.6 |
| O=S(=O)(c1ccc2c(c1)OCCO2)N1CCC(n2cnc3cc(F)ccc32)CC1 | -62.4 |
| CCC(C)C(NC(=O)C1CCC(C)CC1)C(=O)NC(CCSC)C(=O)OC (stereo not shown) | -2.17 |
| CNC(=O)c1ccc(OC2CSC2)cc1 | 19 |
| CC(OC(=O)Cn1cnc2c1c(=O)n(C)c(=O)n2C)C(=O)c1ccccc1 (stereo not shown) | -2.37 |
| Brc1cnc(N2CCOCC2)nc1N1CCCCC1 | -16.3 |
| COc1ccc2c(c1)-c1c(ssc1=S)C(C)(C)N2C(=O)CSC1=NCCS1 | 16.7 |
| COC(=O)c1c(-c2ccccc2)noc1-c1ccccc1 | 2.19 |
| COc1cccc(NC(=O)CN(C)C(=O)CC(NC(=O)c2ccccc2Cl)c2ccccc2)c1 (stereo not shown) | -49.7 |
| COc1ccc(CC(=O)NCC2(c3ccc(OC)c(OC)c3)CCOCC2)cc1 | 14.3 |
| Cc1ccc(C(C)C)c(OCc2ccc(C(=O)N/N=C/c3ccc(O)cc3O)cc2)c1 | 10.9 |
| C/C(=N/NC(=O)C1CCCCC1)c1ccc([N+](=O)[O-])cc1 | 11.2 |
